# The list shows a part of the results.
# B1: B1567 (Bifidobacterium sp) (protein)
# chain: MKFTTAKKAVALTGAVAMLVSVAACGSDSGKSSQPAQDSDVKEITVWAWEPSLTQVAKDFEKETGIKVDLKNVGTNTKEYTQLDNAIEAGSGAPDVAQVEYYAVPQYAIKGNLLDITDKTSGYKDFYTPGPWASVQFAGKVYGLPMDSGPMAFFYNKEVFDKAGVDAEQIKTWDQYYDAAKKIHALGDNYYITSDTGDAGFFDSMTWLAGAKPFQTSSDGSEVTVNLTEDKGVKTFTDFWQKLLDEGLLDTKTAGWSEDWFKGMVDGTIASLFTGAWMPANLANSAADGAGKWRVTQMPTADGSTTNSENGGSSLAVLASTKKADAAYQFIEYANHGAGVATRVAGGAFPADKASLEKDSFKNATTVKNADGQDVDYFGGQKYNEVLAQAAENVSSGYQFLPFEVKARTIFGDYFGKSYTGDQKLSDGVAAWQKALQDYGKDQGFTVK
# Assays:
# Assay in all cases: glycan array binding signal (z-score within array); higher = stronger binding
# Conditions in all cases: glycan notation: IUPAC condensed, linker removed
# Neu5Ac(a2-3)GalNAc = target: Neu5Ac(a2-3)GalNAc
# How it was run: (§1)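 Glycan array data were curated from 3228 arrays in the Consortium for Functional Glycomics database and kept only where the protein sequence was available. Glycan names were converted to IUPAC-condensed notation, and columns mapping to the same glycan were averaged. The binding signal is a within-array Z-score, averaged across arrays of the same protein sequence at different concentrations or buffers and across linkers. Negative Z-scores can be read as non-binding.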
# [1] = target: Neu5Ac(a2-3)GalNAc(b1-4)GlcNAc
# How it was run: as §1
# [2] = target: Neu5Ac(a2-3)[GalNAc(b1-4)]Gal(b1-4)Glc
# How it was run: as §1
# [3] = target: Neu5Ac(a2-3)[GalNAc(b1-4)]Gal(b1-4)GlcNAc
# How it was run: as §1
# [4] = target: Neu5Ac(a2-3)[GalNAc(b1-4)]Gal(b1-4)GlcNAc(b1-3)GalNAc
# How it was run: as §1
# [5] = target: Neu5Ac(a2-3)[Neu5Ac(a2-6)]GalNAc
# How it was run: as §1
# Neu5Ac(a2-6)Gal = target: Neu5Ac(a2-6)Gal
# How it was run: as §1
# [6] = target: Neu5Ac(a2-6)Gal(b1-3)GlcNAc(b1-3)[Gal(b1-4)GlcNAc(b1-6)]Gal(b1-4)Glc
# How it was run: as §1
# Neu5Ac(a2-6)Gal(b1-4)Glc = target: Neu5Ac(a2-6)Gal(b1-4)Glc
# How it was run: as §1
# [7] = target: Neu5Ac(a2-6)Gal(b1-4)GlcNAc
# How it was run: as §1
# [8] = target: Neu5Ac(a2-6)Gal(b1-4)GlcNAc(b1-2)Man
# How it was run: as §1
# [9] = target: Neu5Ac(a2-6)Gal(b1-4)GlcNAc(b1-2)Man(a1-3)Man(b1-4)GlcNAc(b1-4)GlcNAc
# How it was run: as §1
# [10] = target: Neu5Ac(a2-6)Gal(b1-4)GlcNAc(b1-2)Man(a1-3)[Gal(b1-4)GlcNAc(b1-2)Man(a1-6)]Man(b1-4)GlcNAc(b1-4)GlcNAc
# How it was run: as §1
# [11] = target: Neu5Ac(a2-6)Gal(b1-4)GlcNAc(b1-2)Man(a1-3)[GlcNAc(b1-2)Man(a1-6)]Man(b1-4)GlcNAc(b1-4)GlcNAc
# How it was run: as §1
# [12] = target: Neu5Ac(a2-6)Gal(b1-4)GlcNAc(b1-2)Man(a1-3)[GlcNAc(b1-4)][Neu5Ac(a2-6)Gal(b1-4)GlcNAc(b1-2)Man(a1-6)]Man(b1-4)GlcNAc(b1-4)GlcNAc
# How it was run: as §1
# [13] = target: Neu5Ac(a2-6)Gal(b1-4)GlcNAc(b1-2)Man(a1-3)[Man(a1-6)]Man(b1-4)GlcNAc(b1-4)GlcNAc
# How it was run: as §1
# [14] = target: Neu5Ac(a2-6)Gal(b1-4)GlcNAc(b1-2)Man(a1-3)[Neu5Ac(a2-3)Gal(b1-4)GlcNAc(b1-2)Man(a1-6)]Man(b1-4)GlcNAc(b1-4)GlcNAc
# How it was run: as §1
# [15] = target: Neu5Ac(a2-6)Gal(b1-4)GlcNAc(b1-2)Man(a1-3)[Neu5Ac(a2-6)Gal(b1-4)GlcNAc(b1-2)Man(a1-6)]Man(b1-4)GlcNAc(b1-4)GlcNAc
# How it was run: as §1
# [16] = target: Neu5Ac(a2-6)Gal(b1-4)GlcNAc(b1-2)Man(a1-3)[Neu5Ac(a2-6)Gal(b1-4)GlcNAc(b1-2)Man(a1-6)]Man(b1-4)GlcNAc(b1-4)[Fuc(a1-6)]GlcNAc
# How it was run: as §1
# [17] = target: Neu5Ac(a2-6)Gal(b1-4)GlcNAc(b1-2)Man(a1-6)Man(b1-4)GlcNAc(b1-4)GlcNAc
# How it was run: as §1
# [18] = target: Neu5Ac(a2-6)Gal(b1-4)GlcNAc(b1-2)Man(a1-6)[Gal(b1-4)GlcNAc(b1-2)Man(a1-3)]Man(b1-4)GlcNAc(b1-4)GlcNAc
# How it was run: as §1
# [19] = target: Neu5Ac(a2-6)Gal(b1-4)GlcNAc(b1-2)Man(a1-6)[GlcNAc(b1-2)Man(a1-3)]Man(b1-4)GlcNAc(b1-4)GlcNAc
# How it was run: as §1
# [20] = target: Neu5Ac(a2-6)Gal(b1-4)GlcNAc(b1-2)Man(a1-6)[Man(a1-3)]Man(b1-4)GlcNAc(b1-4)GlcNAc
# How it was run: as §1
# [21] = target: Neu5Ac(a2-6)Gal(b1-4)GlcNAc(b1-2)[Neu5Ac(a2-6)Gal(b1-4)GlcNAc(b1-4)]Man(a1-3)[GlcNAc(b1-4)][Neu5Ac(a2-6)Gal(b1-4)GlcNAc(b1-2)[Neu5Ac(a2-6)Gal(b1-4)GlcNAc(b1-6)]Man(a1-6)]Man(b1-4)GlcNAc(b1-4)GlcNAc
# How it was run: as §1
# [22] = target: Neu5Ac(a2-6)Gal(b1-4)GlcNAc(b1-2)[Neu5Ac(a2-6)Gal(b1-4)GlcNAc(b1-4)]Man(a1-3)[GlcNAc(b1-4)][Neu5Ac(a2-6)Gal(b1-4)GlcNAc(b1-4)Man(a1-6)]Man(b1-4)GlcNAc(b1-4)GlcNAc
# How it was run: as §1
# [23] = target: Neu5Ac(a2-6)Gal(b1-4)GlcNAc(b1-2)[Neu5Ac(a2-6)Gal(b1-4)GlcNAc(b1-6)]Man(a1-6)[Neu5Ac(a2-6)Gal(b1-4)GlcNAc(b1-2)Man(a1-3)][GlcNAc(b1-4)]Man(b1-4)GlcNAc(b1-4)GlcNAc
# How it was run: as §1
# [24] = target: Neu5Ac(a2-6)Gal(b1-4)GlcNAc(b1-3)Gal(b1-3)GlcNAc
# How it was run: as §1
# [25] = target: Neu5Ac(a2-6)Gal(b1-4)GlcNAc(b1-3)Gal(b1-4)GlcNAc
# How it was run: as §1
# [26] = target: Neu5Ac(a2-6)Gal(b1-4)GlcNAc(b1-3)Gal(b1-4)GlcNAc(b1-2)Man(a1-3)[Neu5Ac(a2-6)Gal(b1-4)GlcNAc(b1-3)Gal(b1-4)GlcNAc(b1-2)Man(a1-6)]GalNAc
# How it was run: as §1
# [27] = target: Neu5Ac(a2-6)Gal(b1-4)GlcNAc(b1-3)Gal(b1-4)GlcNAc(b1-3)Gal(b1-4)GlcNAc
# How it was run: as §1
# [28] = target: Neu5Ac(a2-6)Gal(b1-4)GlcNAc(b1-3)Gal(b1-4)GlcNAc(b1-3)Gal(b1-4)GlcNAc(b1-2)Man(a1-3)[Neu5Ac(a2-6)Gal(b1-4)GlcNAc(b1-3)Gal(b1-4)GlcNAc(b1-3)Gal(b1-4)GlcNAc(b1-2)Man(a1-6)]GalNAc
# How it was run: as §1
# [29] = target: Neu5Ac(a2-6)Gal(b1-4)GlcNAc(b1-3)Gal(b1-4)GlcNAc(b1-3)GalNAc
# How it was run: as §1
# [30] = target: Neu5Ac(a2-6)Gal(b1-4)GlcNAc(b1-3)Gal(b1-4)GlcNAc(b1-3)[Neu5Ac(a2-6)Gal(b1-4)GlcNAc(b1-3)Gal(b1-4)GlcNAc(b1-6)]GalNAc
# How it was run: as §1
# [31] = target: Neu5Ac(a2-6)Gal(b1-4)GlcNAc(b1-3)Gal(b1-4)GlcNAc(b1-6)[Gal(b1-3)]GalNAc
# How it was run: as §1
# [32] = target: Neu5Ac(a2-6)Gal(b1-4)GlcNAc(b1-3)Gal(b1-4)[Fuc(a1-3)]GlcNAc(b1-3)Gal(b1-4)[Fuc(a1-3)]GlcNAc
# How it was run: as §1
# [33] = target: Neu5Ac(a2-6)Gal(b1-4)GlcNAc(b1-3)GalNAc
# How it was run: as §1
# [34] = target: Neu5Ac(a2-6)Gal(b1-4)GlcNAc(b1-3)[Neu5Ac(a2-6)Gal(b1-4)GlcNAc(b1-6)]GalNAc
# How it was run: as §1
binder,measurement,setting,value
B1,glycan array binding signal (z-score),Neu5Ac(a2-3)GalNAc,-0.12
same,glycan array binding signal (z-score),[1],-0.096
same,glycan array binding signal (z-score),[2],-0.155
same,glycan array binding signal (z-score),[3],-0.145
same,glycan array binding signal (z-score),[4],-0.079
same,glycan array binding signal (z-score),[5],-0.129
same,glycan array binding signal (z-score),Neu5Ac(a2-6)Gal,-0.082
same,glycan array binding signal (z-score),[6],-0.118
same,glycan array binding signal (z-score),Neu5Ac(a2-6)Gal(b1-4)Glc,-0.136
same,glycan array binding signal (z-score),[7],-0.107
same,glycan array binding signal (z-score),[8],-0.065
same,glycan array binding signal (z-score),[9],-0.117
same,glycan array binding signal (z-score),[10],-0.128
same,glycan array binding signal (z-score),[11],-0.135
same,glycan array binding signal (z-score),[12],-0.107
same,glycan array binding signal (z-score),[13],-0.15
same,glycan array binding signal (z-score),[14],-0.036
same,glycan array binding signal (z-score),[15],-0.09
same,glycan array binding signal (z-score),[16],-0.116
same,glycan array binding signal (z-score),[17],-0.096
same,glycan array binding signal (z-score),[18],-0.073
same,glycan array binding signal (z-score),[19],-0.14
same,glycan array binding signal (z-score),[20],-0.109
same,glycan array binding signal (z-score),[21],-0.141
same,glycan array binding signal (z-score),[22],-0.06
same,glycan array binding signal (z-score),[23],-0.107
same,glycan array binding signal (z-score),[24],-0.055
same,glycan array binding signal (z-score),[25],-0.147
same,glycan array binding signal (z-score),[26],-0.126
same,glycan array binding signal (z-score),[27],-0.089
same,glycan array binding signal (z-score),[28],-0.031
same,glycan array binding signal (z-score),[29],-0.112
same,glycan array binding signal (z-score),[30],-0.042
same,glycan array binding signal (z-score),[31],-0.12
same,glycan array binding signal (z-score),[32],-0.063
same,glycan array binding signal (z-score),[33],-0.119
same,glycan array binding signal (z-score),[34],0.054
